In all, about 350,000 compounds went through this assay and about 9,900 (2.8%) were called active. This list was built around the results that the source calls inconclusive (neither active nor inactive); the mix of calls is not that of the screen. Calls follow the shape of the dose curve; as a rule, active = well fitted activation curve with a large enough effect; inconclusive = small, poorly fitted or top-dose-only effect; inactive = no such curve, though single readings can be large or run the other way. No potency is given beside an inconclusive call; the fits are too rough.
Experiment: A quantitative high throughput screen for small molecules that induce DNA re-replication in MCF 10a normal breast cells. Also: nearly all actives have a fitted effect of over 50% in size. As to activity, positive = re-replication: % of control where 0% means no effect.
Conditions: MCF 10A DNA re-replication, Hoechst nuclear intensity, 48 h; activity, positive = re-replication: at 46.1 µM (top of the series)
From the text: H Molecular Libraries Probe Production Network [MLPCN]
NIH Chemical Genomics Center [NCGC]
Assay Provider: Melvin DePamphilis, NICHD, NIH
Eukaryotic cells normally restrict genome duplication to once per cell division. When this process is aberrant, DNA re-replication occurs when cells reinitiate DNA replication before the first round of replication is complete. DNA re-replication induces the DNA damage response, arrests cell proliferation, and triggers apoptosis. The cell cycle components cyclin A, Cdt-1, Cdc6 and geminin are critical regulators of this process and their misregulation results in DNA re-replication in normal and cancer cells. To identify compounds that induce re-replication in normal cells, an image-based assay was used to measure DNA content of nuclei, as detected by the fluorescent DNA binding dye, Hoechst. Cell nuclei were imaged by a fluorescence scanning plate imager and compounds that induce DNA re-replication were identified by the increase of nuclei with elevated fluorescence intensity
For screening, 250 cells in 5 uL/well were dispensed into black clear 1536-well plates (Aurora) using a solenoid-based dispenser. Following transfer of 23 nL compound or DMSO vehicle by a pin tool, the plates were incubated 48 hr at 37 C and 5% CO2. After addition of 1 uL/well Hoescht stain, the plates were incubated 40 min at 37 C, 5% CO2 and total intensity of fluorescent objects (nuclei) were enumerated by an Acumen Explorer Ex3 (TTP LabTech) fluorescence scanning plate imager (405 nm excitation, 500-530 nm emission).
Keywords: NIH Roadmap, MLPCN, MLI, MLSMR, qHTS, NCGC, DNA replication, cancer
Potency is read from the fitted curve at half-maximal effect; tags tell the direction and shape of the fitted curve.

SMILES	Potency	activity, positive = re-replication
CC(C)CC1c2[nH]c3ccccc3c2CCN1C(=O)CCC(=O)N(C)C (stereo not given)	inconclusive [activator, single point]	–
CCOC(=O)C1CCCN(C(=O)C(C)(C)Oc2ccc(Cl)cc2)C1 (stereo not given)	inconclusive [activator, partial curve, poor fit]	–
COc1ccc(-c2[nH]c(-c3cc(OC)c4c(c3)OCO4)nc2-c2ccccc2)cc1	active: 13 µM	–
COc1cc2c(C(=O)NCc3ccc4c(c3)OCO4)cn(CC(C)C)c(=O)c2cc1OC	active: 14.6 µM	–
Cc1ccc(COc2ccc(CNCCCN3CCCCCC3=O)cc2)cc1	inconclusive [activator, single point]	–
Cc1ccc(C(C)C)c(OCCCN2C(=O)NC(C)(C)C2=O)c1	inconclusive [activator, single point]	–
COc1ccc(NS(=O)(=O)c2ccc(NC(=O)Cc3cccs3)cc2)cc1	–	inactive: 5.54%
O=C(Cc1ccc([N+](=O)[O-])cc1)N1CCN(c2ccc([N+](=O)[O-])cc2)CC1	–	inactive: -4.53%
O=C(Nc1ccc(N2CCN(C(=O)c3ccco3)CC2)c(Cl)c1)c1cc2ccccc2o1	active: 9.2 µM	–
Cc1cccc(C2c3[nH]c4ccccc4c3CCN2Cc2cccn2-c2ncccn2)c1 (stereo not given)	inconclusive [activator, single point]	–
COCCN=c1scc(-c2ccc3c(c2)NC(=O)CO3)n1/N=C(\C)c1ccc(O)cc1	inconclusive [activator, single point]	–
Cc1ccc(C(=O)Nc2cccc(S(=O)(=O)N3CCCCC3)c2)cc1S(=O)(=O)N1CCOCC1	–	inactive: 7.05%
O=C(O)CC1c2ccccc2CCN1S(=O)(=O)c1ccccc1 (stereo not given)	inconclusive [activator, full curve]	–
O=C(CCc1ccccc1)NC(=S)Nc1ccccc1[N+](=O)[O-]	inconclusive [activator, single point]	–
OCC1(Cc2ccccc2)CCCN(Cc2ccc(-c3ccco3)cc2)C1 (stereo not given)	inconclusive [activator, partial curve, poor fit]	–
Cc1cccn2c(=O)c(C(=O)NCCCN3CC(C)CC(C)C3)c(O)nc12 (stereo not given)	–	inactive: -0.542%
Cc1ccccc1C(N)=O	inconclusive [activator, full curve, poor fit]	–
Cn1nc(C(=O)Nc2cccc(S(=O)(=O)N3CCCCC3)c2)c2ccccc2c1=O	–	inactive: 18.5%
CN(C(=O)c1ccc(COc2ccccc2Cl)o1)c1ccccc1	inconclusive [activator, partial curve, poor fit]	–
COc1ccc(/C=C/C(=O)C2(O)CCCCC2)cc1	inconclusive [activator, single point]	–
Cc1ccc(C(C)C)c2c1C(c1ccc3c(c1)OCO3)CC(=O)O2 (stereo not given)	inconclusive [activator, single point]	–
CC(C)OCCCN1CN(S(=O)(=O)c2cccc(Cl)c2)c2nc3ccccc3nc21	inconclusive [activator, partial curve, poor fit]	–
COc1cc(NC2CCCCC2O)c2nc(-c3ccc(Cl)cc3)ccc2c1 (stereo not given)	active: 13 µM	–
Cc1cccc(N(Cc2ccccc2)C(=O)c2cc(S(=O)(=O)N3CCOCC3)ccc2Cl)c1	inconclusive [activator, single point]	–

SMILES	Potency	activity, positive = re-replication
CC(=O)N1CCC(C(=O)OCc2ccccc2F)(c2ccccc2)CC1	–	inactive: 0.236%
Cc1ccc(NC(=O)CSc2nnnn2C2CC2)cc1S(=O)(=O)N1CCOCC1	–	inactive: 1.37%
C#CCn1c(O)c(N=NC(=O)CNC(=O)c2cccnc2)c2ccccc21	inconclusive [activator, single point]	–
N#Cc1c(-c2ccccc2)cc(C2CC2)nc1SCC(=O)c1cccs1	–	inactive: 16.5%
O=c1cc(CCl)[nH]c2nc3ccccc3n12	inconclusive [activator, single point]	–
CCCCOc1ccc(SCCCN2CCOCC2)cc1	inconclusive [activator, single point]	–
O=C(CN1C(=O)NC2(CCCCCCC2)C1=O)Nc1ccc(OC(F)F)cc1	–	inactive: 4.97%
COc1ccc(NC(=O)c2csc(Cc3ccc(Cl)cc3)n2)cc1	–	inactive: 12.5%
CCC(=O)Nc1nonc1-c1nc2ccccc2n1Cc1cccc2ccccc12	active: 0.366 µM	–
Cc1ccn(-c2n[nH]c(C)c2[N+](=O)[O-])n1	–	inactive: -6.29%
C=CCOc1ccccc1/C=N/NC(=O)c1ccc(Cl)cc1Cl	inconclusive [activator, partial curve, poor fit]	–
CC(C)COc1ccc(CNC(=S)Nc2ccccc2)cc1Cl	inconclusive [activator, single point]	–
CCOc1cc(/C=C2/C(=O)ON=C2C)ccc1OCc1ccc(F)cc1	inconclusive [activator, single point]	–
CC(Sc1nnc(CN2CCCC2)n1Cc1ccccc1)C(=O)Nc1ccc(F)cc1Cl (stereo not given)	inconclusive [activator, single point]	–
O=C(CCCCCNC(=O)N1CCn2c1nc1ccccc12)NCc1ccccc1	–	inactive: 12.4%
COc1ccc(CC(=O)Nc2cccc(-c3nnc(-c4cccc(C)c4)o3)c2)cc1OC	inconclusive [activator, single point]	–
CCC(NC(=O)C1CCCC1)c1ccc(C)cc1 (stereo not given)	inconclusive [activator, single point]	–
O=c1c2cc([N+](=O)[O-])ccc2nc(CN2CCN(c3ccccn3)CC2)n1-c1ccccc1F	–	inactive: 11.3%
Cc1ccc(-c2nnc(SCc3ccccc3F)o2)cc1	inconclusive [activator, single point]	–
Cc1cc(=O)n2[nH]c(C(F)(F)F)c(-c3ccccc3)c2n1	–	inactive: -0.48%
COc1cc(C(=O)Oc2ccccc2/C=N/NC(=O)c2ccc(Cl)cc2)cc(OC)c1OC	inconclusive [activator, single point]	–
N#C/C(=C(/O)COc1ccc(Cl)cc1)c1nc2ccccc2s1	active: 16.4 µM	–
CCO/N=C/C1=C(O)C(C(=O)OC)C(C)(C)CC1=O (stereo not given)	inconclusive [activator, single point]	–
CC(=O)CCC(=O)N1CCC(n2nccc2NC(=O)c2ccccc2C)CC1	–	inactive: 5.84%

SMILES	Potency	activity, positive = re-replication
FC(F)(F)c1cc(Nc2ccccc2)nc(-c2ccccn2)n1	inconclusive [activator, single point]	–
O=C(CCNC(=O)c1ccco1)NCCN1C(=O)S/C(=C\c2ccc(F)cc2)C1=O	–	inactive: -2.76%
CCOc1ccc(NC(=O)c2ccccc2NS(=O)(=O)c2ccc(F)cc2)c([N+](=O)[O-])c1	–	inactive: 20.4%
COc1ccc(OC)c(C(C)NC(=O)c2ccc(Br)cc2)c1 (stereo not given)	–	inactive: -6.81%
COC(=O)N[C@@H]1C[C@H]2[C@@H]3CC[C@H]4C[C@@H](OC)CC[C@]4(C)[C@H]3CC[C@]12C	inconclusive [activator, partial curve, poor fit]	–
CC(C)OC(=O)c1ccc(N2CCN(c3ccccc3F)CC2)nc1	inconclusive [activator, single point]	–
Cc1cc(C)c2c(c1)C(=O)/C(=C/c1ccc(C(=O)O)cc1)CC2	inconclusive [activator, single point]	–
O=C1c2cccc(OCc3ccc(F)cc3)c2CCN1Cc1ccccc1	inconclusive [activator, single point]	–
O=C1CCCc2c1[nH]c1ccc(CN3CCCCC3)cc21	–	inactive: 14.9%
CCN1CCN(C(=O)c2ccc(CN(c3ccc(C)c(C)c3)S(C)(=O)=O)cc2)CC1	inconclusive [activator, partial curve, poor fit]	–
NC(N)=N/N=C/c1ccc(Br)cc1	active: 18.4 µM	–
CCOC(=O)CNC(=O)CSc1nc2nc(C)c(Br)cc2[nH]1	inconclusive [activator, single point]	–
CCc1ccc(C2c3[nH]c4ccccc4c3CCN2C(=O)c2cc[n+]([O-])cc2)cc1 (stereo not given)	inconclusive [activator, single point]	–
COC(=O)C1CC(=O)N(c2ccc(OCc3ccccc3Cl)cc2)C1 (stereo not given)	inconclusive [activator, single point]	–
CN1CCN(c2ccccc2NC(=O)COc2ccc(Br)cc2)CC1	inconclusive [activator, partial curve, poor fit]	–
Cc1ccc(S(=O)(=O)Nc2ccc(C(OC(=O)c3ccccc3[N+](=O)[O-])(C(F)(F)F)C(F)(F)F)cc2)cc1	inconclusive [activator, single point]	–
Cc1ccc2c(c1)sc1nc(=O)n(-c3ccccc3)c(=O)n12	–	inactive: 7.07%
O=C(O)c1nccnc1C(=O)Nc1ccc(S(=O)(=O)N2CCOCC2)cc1	–	inactive: -1.15%
CCOc1ccc(C2C([N+](=O)[O-])=C(C)N(C)C(=O)N2C)cc1OC (stereo not given)	inconclusive [activator, single point]	–
Cc1c(-c2ccc(Br)cc2)nc2ccccn12	inconclusive [activator, partial curve, poor fit]	–
CN(CC(=O)Nc1cccc(F)c1)CC(=O)Nc1ccccc1Oc1ccccc1	inconclusive [activator, single point]	–
CC(C)(C)c1ccc(C(=O)Nc2ccc(C=C(C#N)C#N)cc2)cc1	inconclusive [activator, full curve, poor fit]	–
